The results in this text go back to the supplement of paper PMC8512760.

Each structure is given as a SMILES string. This is one part of the list. Repeats are few or missing, and single values can be far off.
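Also: stably firefly luciferase-GFP labeled cells in 96-well plates, viability read as luciferase photon flux after d-luciferin addition, treated wells normalized to vehicle wells, single-dose high-throughput screen.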

The first test deals with MDA-468. Kind of test: cell viability relative to vehicle (% of vehicle); basal-like triple-negative breast cancer lines; higher = less cytotoxic. The following applies: 10 µM; 72 h.
In turn, `CO[C@H]1O[C@@H]2O[C@@]3(C)CC[C@H]4[C@H](C)CC[C@@H]([C@H]1C)[C@@]24OO3` [Artemether (SM-224)] came in with a cell viability of 87.2. `O=C([O-])CCCc1ccccc1.[Na+]` [Sodium Phenylbutyrate]: the cell viability was 97.6.

In the case of `Cn1c(=O)cc(N2CCCC(N)C2)n(Cc2ccccc2C#N)c1=O` (centres undefined) [Alogliptin (SYR-322)], the cell viability was determined as 102. `C[C@@H]1C[C@H]2[C@H]3CCC4=CC(=O)C=C[C@]4(C)[C@@]3(F)[C@@H](O)C[C@]2(C)[C@@]1(O)C(=O)CO` [Dexamethasone (DHAP)] came in with a cell viability of 130.

The molecule `COc1cc2ncnc(Nc3ccc(F)c(Cl)c3)c2cc1OCCCN1CCOCC1` [Gefitinib (ZD1839)] yielded a cell viability of 77.8.

For the molecule `O=C(C=Cc1cccc(S(=O)(=O)Nc2ccccc2)c1)NO` [Belinostat (PXD101)], the cell viability amounted to 32.5.

`Nc1ccc(C(=O)[O-])c(O)c1.O.O.[Na+]` [Sodium 4-Aminosalicylate]: the cell viability was found to be 93.7. Molecule `CCN(CC)CCOC(=O)C(c1ccccc1)c1ccccc1.Cl` [Adiphenine HCl] came in with a cell viability of 109. Same read-out and setting: in the case of `COc1ccccc1Oc1c(NS(=O)(=O)c2ccc(C(C)(C)C)cc2)nc(-c2ncccn2)nc1OCCO.O` [Bosentan Hydrate] it was 91.9; in that of `Nc1ccc(O)c(C(=O)O)c1` [Mesalamine], 103; in that of `CCOc1cc(C(CS(C)(=O)=O)N2C(=O)c3cccc(NC(C)=O)c3C2=O)ccc1OC` (centres undefined), 90.8.

In turn, `Cl.NC1=NCC2c3ccccc3Cc3ccccc3N12` (centres undefined) [Epinastine HCl] registered a cell viability of 88.6. `CCCCCCOC(=O)N=C(N)c1ccc(NCc2nc3cc(C(=O)N(CCC(=O)OCC)c4ccccn4)ccc3n2C)cc1.CS(=O)(=O)O` [Dabigatran etexilate mesylate] displayed a cell viability of 89.1. Still for that read-out and setting: for `CCCCC(=O)OC1CCC2C3CCc4cc(O)ccc4C3CCC12C` (centres undefined) [Estradiol valerate] the value was 93.7; for `O=C(O)CO.[NH2-].[NH2-].[Pt+2]` [Nedaplatin], 26.9; for `C=CC(=O)Nc1cccc(Nc2nc(Nc3ccc(N4CCN(C(C)=O)CC4)cc3OC)ncc2C(F)(F)F)c1`, 18.9.

As for `C=C1c2cccc(O)c2C(O)=C2C(=O)C3(O)C(O)=C(C(N)=O)C(=O)C(N(C)C)C3C(O)C12.Cl` (centres undefined) [Methacycline HCl], the cell viability was 104. In turn, `CC(=O)OC1CCC2(C)C(=CCC3C2CCC2(C)C(c4cccnc4)=CCC32)C1` (centres undefined) [Abiraterone acetate] gave a cell viability of 88.7. Same read-out and setting: for `Cc1c(O)cccc1C(=O)NC(CSc1ccccc1)C(O)CN1CC2CCCCC2CC1C(=O)NC(C)(C)C` (centres undefined) [Nelfinavir] the value was 103.

A further test deals with SUM-149. The description is as above. Conditions: 10 µM; 72 h.
The molecule `CC1=NS(=O)(=O)c2cc(Cl)ccc2N1` [Diazoxide] gave a cell viability of 107. As to `CCOC(=O)c1ccc(N)cc1` [Benzocaine], the cell viability is 115. On the same count and under the same terms, for `O=C(O)Cc1cc(I)c(Oc2ccc(O)c(I)c2)c(I)c1` [Tiratricol] the value was 98.9; for `CC(=O)NC(CS)C(=O)O` (centres undefined) [Acetylcysteine], 97; for `Cn1c(=O)cc(N2CCCC(N)C2)n(Cc2cc(F)ccc2C#N)c1=O` (centres undefined) [Trelagliptin], 113. Still for that read-out and setting: for `CC12CCC(O)CC1=CCC1C2CCC2(C)C(n3cnc4ccccc43)=CCC12` (centres undefined) the value was 90.4.

In turn, `CNC(=O)C(NC(=O)C(CC(C)C)C(O)C(=O)NO)C(C)(C)C` (centres undefined) [Marimastat] gave a cell viability of 80.5. Still for that read-out and setting: in the case of `CC(C(=O)O)c1cccc(Oc2ccccc2)c1` (centres undefined) [Fenoprofen calcium hydrate] it was 92.1; in that of `CS(=O)(=O)CCNCc1ccc(-c2ccc3ncnc(Nc4ccc(OCc5cccc(F)c5)c(Cl)c4)c3c2)o1.Cc1ccc(S(=O)(=O)O)cc1.Cc1ccc(S(=O)(=O)O)cc1` [Lapatinib Ditosylate], 59.5; in that of `CCCN1CCCCC1C(=O)Nc1c(C)cccc1C.Cl` (centres undefined) [Ropivacaine HCl], 139. Still for that read-out and setting: in the case of `C[N+](C)(C)CCO.[Cl-]` [Choline Chloride] it was 90.1; in that of `C[N+](C)(C)CC(O)CC(=O)O.[Cl-]` (racemic) [DL-Carnitine HCl], 139; in that of `C=C(c1ccc(C(=O)O)cc1)c1cc2c(cc1C)C(C)(C)CCC2(C)C` [Bexarotene], 107. Still for that read-out and setting: for `Cl.Cl.NC(=NCCCCCCN=C(N)N=C(N)Nc1ccc(Cl)cc1)N=C(N)Nc1ccc(Cl)cc1` [Chlorhexidine HCl] the value was 65.5; for `CCC1=CC2CN(C1)Cc1c([nH]c3ccccc13)C(C(=O)OC)(c1cc3c(cc1OC)N(C)C1C(O)(C(=O)OC)C(OC(C)=O)C4(CC)C=CCN5CCC31C54)C2.O=C(O)C(O)C(O)C(=O)O.O=C(O)C(O)C(O)C(=O)O` (centres undefined) [Vinorelbine ditartrate], 88.2. For the molecule `CC(=O)c1c(C)c2cnc(Nc3ccc(N4CCNCC4)cn3)nc2n(C2CCCC2)c1=O.Cl`, the cell viability stood at 120. `Cl.O=C1Cc2cc(CCN3CCN(c4nsc5ccccc45)CC3)c(Cl)cc2N1` [Ziprasidone HCl] gave a cell viability of 131. Still for that read-out and setting: for `O=C(CCCCCCNC(=O)c1cnc(N(c2ccccc2)c2ccccc2)nc1)NO` [Rocilinostat (ACY-1215)] the value was 98; for `Cc1ccccc1N1C(=O)c2cc(S(N)(=O)=O)c(Cl)cc2NC1C` (centres undefined) [Metolazone], 99.5; for `COC(=O)C1=C(C)NC(C)=C(C(=O)OCCN(C)Cc2ccccc2)C1c1cccc([N+](=O)[O-])c1.Cl` (centres undefined) [Nicardipine HCl], 89.4.

In turn, `CC1CC2C3CCC4=CC(=O)C=CC4(C)C3(Cl)C(O)CC2(C)C1(OC(=O)c1ccco1)C(=O)CCl` (centres undefined) [Mometasone furoate] showed a cell viability of 185. `CO[C@H]1O[C@@H]2O[C@@]3(C)CC[C@H]4[C@H](C)CC[C@@H]([C@H]1C)[C@@]24OO3` [Artemether (SM-224)] showed a cell viability of 88.7. In the case of `O=C([O-])CCCc1ccccc1.[Na+]` [Sodium Phenylbutyrate], the cell viability stood at 129. Molecule `Cn1c(=O)cc(N2CCCC(N)C2)n(Cc2ccccc2C#N)c1=O` (centres undefined) [Alogliptin (SYR-322)] registered a cell viability of 105. The molecule `C[C@@H]1C[C@H]2[C@H]3CCC4=CC(=O)C=C[C@]4(C)[C@@]3(F)[C@@H](O)C[C@]2(C)[C@@]1(O)C(=O)CO` [Dexamethasone (DHAP)] returned a cell viability of 172. On the same count and under the same terms, in the case of `COc1cc2ncnc(Nc3ccc(F)c(Cl)c3)c2cc1OCCCN1CCOCC1` [Gefitinib (ZD1839)] it was 77.3. The same measure, in the same setting: for `O=C(C=Cc1cccc(S(=O)(=O)Nc2ccccc2)c1)NO` [Belinostat (PXD101)] the value was 113; for `Nc1ccc(C(=O)[O-])c(O)c1.O.O.[Na+]` [Sodium 4-Aminosalicylate], 121; for `CCN(CC)CCOC(=O)C(c1ccccc1)c1ccccc1.Cl` [Adiphenine HCl], 126. Same read-out and setting: for `COc1ccccc1Oc1c(NS(=O)(=O)c2ccc(C(C)(C)C)cc2)nc(-c2ncccn2)nc1OCCO.O` [Bosentan Hydrate] the value was 106; for `Nc1ccc(O)c(C(=O)O)c1` [Mesalamine], 131; for `CCOc1cc(C(CS(C)(=O)=O)N2C(=O)c3cccc(NC(C)=O)c3C2=O)ccc1OC` (centres undefined), 122.

`Cl.NC1=NCC2c3ccccc3Cc3ccccc3N12` (centres undefined) [Epinastine HCl] yielded a cell viability of 88.3. Same read-out and setting: in the case of `CCCCCCOC(=O)N=C(N)c1ccc(NCc2nc3cc(C(=O)N(CCC(=O)OCC)c4ccccn4)ccc3n2C)cc1.CS(=O)(=O)O` [Dabigatran etexilate mesylate] it was 134; in that of `CCCCC(=O)OC1CCC2C3CCc4cc(O)ccc4C3CCC12C` (centres undefined) [Estradiol valerate], 93.4. With `O=C(O)CO.[NH2-].[NH2-].[Pt+2]` [Nedaplatin], the cell viability worked out at 33. Still for that read-out and setting: for `C=CC(=O)Nc1cccc(Nc2nc(Nc3ccc(N4CCN(C(C)=O)CC4)cc3OC)ncc2C(F)(F)F)c1` the value was 29.3. For the molecule `C=C1c2cccc(O)c2C(O)=C2C(=O)C3(O)C(O)=C(C(N)=O)C(=O)C(N(C)C)C3C(O)C12.Cl` (centres undefined) [Methacycline HCl], the cell viability was found to be 105. Molecule `CC(=O)OC1CCC2(C)C(=CCC3C2CCC2(C)C(c4cccnc4)=CCC32)C1` (centres undefined) [Abiraterone acetate] yielded a cell viability of 97.3. `Cc1c(O)cccc1C(=O)NC(CSc1ccccc1)C(O)CN1CC2CCCCC2CC1C(=O)NC(C)(C)C` (centres undefined) [Nelfinavir] registered a cell viability of 88.3.
